Laboratory results: the supplement of paper PMC10185492
This is one part of the list. Read counts after selection give these values, which scatter widely.

Test system: SARS-CoV-2 3CLpro (nsp5)
Experiment: substrate phage enrichment score (protease-eluted vs HEPES control, +1 offset) (ratio); higher = better cleaved substrate
Conditions: selection round: 4; protease elution time: 15 min
Description: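 Random heptapeptide substrate phage display (M13 pIII fusion, heptapeptide between an N-terminal biotinylated AviTag GLNDIFEAQKIEWHE and pIII; phages immobilised on streptavidin) eluted by cleavage with 50 nM protease in 20 mM HEPES at 37 °C. Selected phages were NGS sequenced, and the enrichment score is (reads in protease sample + 1)/(reads in HEPES blank-selection control + 1).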

Row | Substance | substrate phage enrichment score
1 | TGHVILH | > 200
2 | PKGPYNP | > 29
3 | APNPVSR | 3.67
4 | HLSASSP | 3.27
5 | VTKQEPD | 3
6 | VYTGPRD | > 111
7 | RSCLQCG | > 22
8 | PDAAAHH | 1.75
9 | KSNEDLV | > 49
10 | EPNSILH | 12.3
11 | FQSHEPN | > 48
12 | SPYFQGG | 7.29
13 | SALLQKR | 5
14 | HSARDFQ | 0.609
15 | NNAPVNI | 3.38
16 | VPAAHHH | 0.494
17 | CQHNVGS | 0.68
18 | CYESEMR | > 74
19 | SEPVSTW | 0.333
20 | ASGEIDG | 2.4
21 | ERFLLHQ | 4.17
22 | HSKNQGG | > 21
23 | PGDWGRP | 0.0909
24 | IGVSAHH | 2.75

Row | Substance | substrate phage enrichment score
25 | GPHKNSR | 0.294
26 | LNLKDKD | 0.611
27 | SGDPVSR | > 53
28 | AIHCPST | 0.171
29 | RPPELME | 2.21
30 | RMVVQLQ | > 46
31 | AARDRAC | > 21
32 | KCQEAFP | 2.67
33 | CMRSSLT | > 30
34 | KARDSTR | 3.33
35 | VSRLQGD | > 26
36 | RACTLHS | > 37
37 | RLQSCTG | > 22
38 | SDNVNRY | > 22
39 | TRAEAPH | 1.08
40 | CNWQWTY | 2.43
41 | AGMTPMP | 14.5
42 | QPVTNLQ | > 174
43 | PVQWPML | 1.36
44 | ARAELSS | > 28
45 | PIDESSG | 3.07
46 | NRMSLLH | > 23
47 | PQVRCQE | 1.28
48 | SLPSAHR | > 90

Row | Substance | substrate phage enrichment score
49 | EAKNPRQ | 11.3
50 | ASIRPKA | 0.917
51 | SWKGGLP | 2
52 | TNYVREQ | > 22
53 | DASSAAT | 0.867
54 | LSTIECQ | > 21
55 | VRNTTPH | 0.529
56 | SAAKPDV | 2.71
57 | CYVSENE | 16
58 | TGVHIPN | 0.12
59 | RPVLQSH | > 35
60 | YHHHGAA | 0.304
61 | HNPGSGG | 2.57
62 | GTCLMQS | > 21
63 | TTSDRIL | 1.21
64 | CNSPRPV | 0.4
65 | ASPLNNN | > 75
66 | VRPHINN | 1.2
67 | VTSAGPS | 2.18
68 | VMAAHHH | 0.25
69 | RVCPTQH | > 28
70 | AAMTDSK | 0.917
71 | QGSPVLQ | > 27
72 | HAGCDTT | > 69

Row | Substance | substrate phage enrichment score
73 | SYRCSLG | > 26
74 | AASRELI | 7
75 | FASCGSV | 7.33
76 | RDWNPAM | 1.16
77 | PSQGLRP | > 39
78 | VLQASGY | 12.3
79 | PSHPRGA | 20
80 | ALSPRPG | 0.115
81 | FSAAHHH | 0.792
82 | NGGLNPG | 4.94
83 | IDRPIHC | 0.109
84 | PCRQNGR | > 23
85 | AKELRDP | > 46
86 | YQHDGLK | > 31
87 | RRADAET | 0.158
88 | HPNQRWR | 2.44
89 | CLGSTPS | 2.43
90 | KALNLTP | 0.286
91 | DPRDGHL | 1.35
92 | QHEAALC | 2.88
93 | GSSVSLM | > 25
94 | FENGQVK | 11
95 | SGKVGQL | > 84
96 | QYSELQS | > 38

Row | Substance | substrate phage enrichment score
97 | CHLSNRH | > 37
98 | PRCWIRP | 28
99 | GFDRPID | 1.08
100 | ACEQMWA | > 37
101 | THWVNKD | > 66
102 | PTQKLGL | 9
103 | PMSAAFE | 1.7
104 | SSRPTSA | 0.444
105 | SCHRPVS | 3.5
106 | CYQTRRF | 0.0571
107 | ETNIFRT | 7.67
108 | KSTQPSK | 1.02
109 | RELHAGP | > 61
110 | PAGLMWQ | > 28
111 | LPCTEAS | 0.781
112 | KPLFSTQ | 0.652
113 | RSWNTLS | 1.36
114 | LSPNDVK | > 63
115 | SAATADY | > 42
116 | ADSRRTL | 0.353
117 | VSSPVLQ | 19
118 | TKWSHQQ | 0.273
119 | ISHNVSR | > 31
120 | TNCVDLT | 0.947

Row | Substance | substrate phage enrichment score
121 | CVAAHHH | 0.44
122 | VGSQCDK | 0.444
123 | ACQMAPR | > 21
124 | EKSGPGS | 2.29
125 | SWRSVPG | > 86
126 | NPHKTTL | 3.88
127 | TQKSQWS | 4
128 | RSLCPQL | 1.17
129 | RDEKHTP | 0.333
130 | SVTIYGE | 5.25
131 | PHSKIQS | > 27
132 | GCTLPRS | 3.89
133 | INSGPLR | > 64
134 | ESERKRR | > 23
135 | ELYFQGG | 1.2
136 | EELREVH | 1.6
137 | KKQSIMG | > 37
138 | SAAAQHK | 2.06
139 | NKPVRLH | > 58
140 | MYFQGGS | 1.46
141 | SPAHHHH | 0.985
142 | TKYLQSS | > 32
143 | ARLPTQH | 2.62
144 | KYDYNKG | 10

Row | Substance | substrate phage enrichment score
145 | GSNARGP | 0.389
146 | NEVSRQR | > 28
147 | VKCPGTD | 4.12
148 | TPTSLQG | 2.07
149 | AKCQTPR | 21.5
150 | KTGDGCV | 0.5
151 | MNHGVLQ | > 56
152 | TWYRAEC | > 61
153 | AGAAAHH | 0.5
154 | SNPAAHH | 15.5
155 | SDAAHHH | 0.622
156 | CIVPTDS | 0.733
157 | PCEDGAV | 4.75
158 | VRCCCPV | 0.333
159 | SAAANHQ | 1.56
160 | WPGARPR | 0.571
161 | VHNMDST | > 25
162 | ELSKNPN | 5
163 | SAAAHKQ | 1.29
164 | GDKAVMH | 69.5
165 | RGIVMQS | 17.5
166 | AQDSDRR | 11.5
167 | ESCSLGK | 6.6
168 | VDATETT | 0.167

Row | Substance | substrate phage enrichment score
169 | RDACFLT | 2.67
170 | TDLNGTQ | > 36
171 | LRRSCRV | > 31
172 | DVFSAGD | 7.6
173 | DANLGTC | 2.67
174 | RAPTAAD | > 37
175 | TKPNCSP | 0.6
176 | GIPLQAQ | > 36
177 | RVVVRPH | 0.706
178 | DKKGEAN | 4.75
179 | NQWNEGY | > 41
180 | RDGTTTG | > 32
181 | DNKPSYN | 6
182 | WNPCLTC | 0.917
183 | HMGTCGH | 0.389
184 | QVGAMTA | > 104
185 | MSTRLQC | > 175
186 | RRRRCCR | > 23
187 | ARKRPYD | 6.33
188 | CRRTRRI | 0.0769
189 | SCAAAHH | 0.867
190 | NTAAHHH | 0.689
191 | CGAQISI | > 21
192 | TAPTKLQ | > 78

Row | Substance | substrate phage enrichment score
193 | VRVSSPG | 1.19
194 | PSLYFQG | 3.82
195 | QSPNSSG | 25.3
196 | SAPWGTY | > 34
197 | RGCTWSE | > 94
198 | STAHHHH | 0.645
199 | QKTGVDH | > 24
200 | EGFTSTQ | > 31
201 | TCPDVRL | 0.692
202 | SWAAHHH | 2.38
203 | PVFADTL | > 28
204 | ECKVQLN | 39
205 | RTNATLQ | > 33
206 | PTFPNKE | 0.938
207 | DCAHRHG | 1.25
208 | FPAAHHH | 1.44
209 | AAETDRR | > 23
210 | KPFPQPR | 2.03
211 | AVGDGSR | 3.4
212 | SDHTLKH | 0.613
213 | SRVKAHT | 1.14
214 | QMAVTPK | 0.833
215 | IKAAHHH | 0.727
216 | RGCRRTV | 14.5

Row | Substance | substrate phage enrichment score
217 | PIPEVAQ | 4.4
218 | LEFDLTT | > 35
219 | EQGRPSV | 3.25
220 | ETAAHHH | 1.3
221 | LSKSCKH | 2
222 | KAQNQRW | > 29
223 | RTQRTKG | 7
224 | RFCRRMG | > 43
225 | LWQDRTE | > 24
226 | TTAGTVT | 0.692
227 | ESSAHHH | 1.33
228 | PEPGSPP | 12
229 | SAAAHHR | 0.9
230 | ASTSWVK | 2.5
231 | CIGAFKR | 1.17
232 | RTNSNYR | > 21
233 | VMWCLHG | > 45
234 | SREKQSY | 1.44
